# This is a selection; strong and weak results do not stand in their true shares. For some of these results: At the low end of the ranking the order means little. The list shows a part of the results. For some of these results: The source does not settle which construct or isoform was used.
# What was measured:
# Test in all cases: universal protein binding microarray (PBM)
# Conditions in all cases: transcription factors of Arabidopsis thaliana; high values mean tight binding; most listed sequences are background and not binding sites; double strand, one strand shown
# GST-ANAC092(1-176) = biological target: T1, GST-ANAC092(1-176) (UniProt Q9FKA0)
# T1 sequence: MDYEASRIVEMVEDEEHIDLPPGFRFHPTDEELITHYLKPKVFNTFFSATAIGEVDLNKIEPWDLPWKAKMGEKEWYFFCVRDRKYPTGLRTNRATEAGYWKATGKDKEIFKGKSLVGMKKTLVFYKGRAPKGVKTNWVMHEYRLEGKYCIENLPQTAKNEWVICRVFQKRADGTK
# GST-NTL6(1-168) = GST-NTL6(1-168) (UniProt Q9SCK6)
# GST-ANAC019 NAC domain = biological target: T2, GST-ANAC019 NAC domain (UniProt Q9C932)
# T2 sequence: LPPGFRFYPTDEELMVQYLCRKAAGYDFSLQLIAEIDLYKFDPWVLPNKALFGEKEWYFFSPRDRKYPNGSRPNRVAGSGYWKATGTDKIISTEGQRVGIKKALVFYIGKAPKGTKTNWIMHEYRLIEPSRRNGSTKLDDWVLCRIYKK
# GST-ANAC055(1-171) = biological target: T3, GST-ANAC055(1-171) (UniProt Q9LDY8)
# T3 sequence: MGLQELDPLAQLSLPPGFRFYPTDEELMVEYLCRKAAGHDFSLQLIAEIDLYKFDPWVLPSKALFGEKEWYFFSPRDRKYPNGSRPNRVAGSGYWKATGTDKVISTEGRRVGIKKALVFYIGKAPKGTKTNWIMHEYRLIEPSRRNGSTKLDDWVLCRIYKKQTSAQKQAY
# GST-ATAF1 NAC domain = biological target: T4, GST-ATAF1 NAC domain (UniProt Q39013)
# T4 sequence: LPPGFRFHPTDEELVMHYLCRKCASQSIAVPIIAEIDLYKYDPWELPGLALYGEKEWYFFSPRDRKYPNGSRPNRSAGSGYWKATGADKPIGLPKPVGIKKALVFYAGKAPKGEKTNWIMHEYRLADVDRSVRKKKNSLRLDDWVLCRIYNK
# [1] = biological target: T5, GST-ANAC092(1-285) full length (UniProt Q9FKA0)
# T5 sequence: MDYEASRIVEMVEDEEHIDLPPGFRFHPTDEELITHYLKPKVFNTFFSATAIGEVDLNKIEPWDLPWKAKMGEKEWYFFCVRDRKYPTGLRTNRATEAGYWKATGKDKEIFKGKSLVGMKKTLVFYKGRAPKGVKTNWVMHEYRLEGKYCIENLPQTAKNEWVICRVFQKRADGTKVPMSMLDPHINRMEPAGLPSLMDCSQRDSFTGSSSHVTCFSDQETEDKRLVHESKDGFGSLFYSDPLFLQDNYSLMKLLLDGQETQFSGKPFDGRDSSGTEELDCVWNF
# GST-NAP(1-166) = biological target: T6, GST-NAP(1-166) (UniProt O49255)
# T6 sequence: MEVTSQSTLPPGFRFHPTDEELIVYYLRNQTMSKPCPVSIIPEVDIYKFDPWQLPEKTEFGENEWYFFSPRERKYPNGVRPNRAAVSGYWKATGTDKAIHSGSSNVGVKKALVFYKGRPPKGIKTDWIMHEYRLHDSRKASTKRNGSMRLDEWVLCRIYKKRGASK
# GST-NST2(1-184) = biological target: T7, GST-NST2(1-184) (UniProt Q9M274)
# T7 sequence: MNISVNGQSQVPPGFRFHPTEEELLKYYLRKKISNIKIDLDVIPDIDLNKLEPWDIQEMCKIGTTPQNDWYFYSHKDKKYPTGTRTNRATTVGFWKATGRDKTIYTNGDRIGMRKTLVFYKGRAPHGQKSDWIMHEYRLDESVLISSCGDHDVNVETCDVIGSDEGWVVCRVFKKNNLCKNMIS
# GST-NTL8 NAC domain = biological target: T8, GST-NTL8 NAC domain (UniProt Q9XIN7)
# T8 sequence: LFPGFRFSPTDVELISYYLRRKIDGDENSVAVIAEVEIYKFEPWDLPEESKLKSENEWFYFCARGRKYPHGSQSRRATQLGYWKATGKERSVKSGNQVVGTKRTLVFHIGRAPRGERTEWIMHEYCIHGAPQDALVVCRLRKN
# GST-VND3 NAC domain = biological target: T9, GST-VND3 NAC domain (UniProt Q9FH59)
# T9 sequence: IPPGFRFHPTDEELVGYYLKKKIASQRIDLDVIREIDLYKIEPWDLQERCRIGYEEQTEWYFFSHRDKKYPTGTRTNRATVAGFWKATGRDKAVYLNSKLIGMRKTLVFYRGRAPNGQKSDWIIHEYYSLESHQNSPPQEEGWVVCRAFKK
# GST-VND7 NAC domain = biological target: T10, GST-VND7 NAC domain (UniProt Q9C8W9)
# T10 sequence: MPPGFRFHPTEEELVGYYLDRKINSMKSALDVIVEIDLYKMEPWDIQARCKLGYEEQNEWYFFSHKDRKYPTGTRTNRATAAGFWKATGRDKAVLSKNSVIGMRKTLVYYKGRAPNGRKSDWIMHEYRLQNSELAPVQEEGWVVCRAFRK
# [2] = biological target: T11, GST-VOZ2 (Arabidopsis thaliana) (UniProt Q9SLB9)
# T11 sequence: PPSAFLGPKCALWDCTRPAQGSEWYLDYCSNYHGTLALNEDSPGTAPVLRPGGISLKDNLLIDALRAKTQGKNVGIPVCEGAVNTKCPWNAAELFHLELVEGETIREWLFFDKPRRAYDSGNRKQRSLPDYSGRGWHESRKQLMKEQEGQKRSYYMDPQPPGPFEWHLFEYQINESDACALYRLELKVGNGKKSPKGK
# GST-WRKY1(266-371) = GST-WRKY1(266-371) (UniProt Q9SI37)
Sequence,binding signal (GST-ANAC092(1-176)),binding signal (GST-NTL6(1-168)),binding signal (GST-ANAC019 NAC domain),binding signal (GST-ANAC055(1-171)),binding signal (GST-ATAF1 NAC domain),binding signal [1],binding signal (GST-NAP(1-166)),binding signal (GST-NST2(1-184)),binding signal (GST-NTL8 NAC domain),binding signal (GST-VND3 NAC domain),binding signal (GST-VND7 NAC domain),binding signal [2],binding signal (GST-WRKY1(266-371))
CCAAGTCA,-0.0709 E-score,-0.00442 E-score,0.0173 E-score,-0.0685 E-score,-0.0819 E-score,0.0028 E-score,0.015 E-score,-0.00062 E-score,0.0169 E-score,-0.0615 E-score,-0.0034 E-score,-0.0178 E-score,–
CACTCAAC,–,0.0871 E-score,–,–,0.0909 E-score,–,0.00159 E-score,–,-0.021 E-score,0.089 E-score,0.00897 E-score,0.102 E-score,-0.058 E-score
ACGCCACG,–,-0.066 E-score,–,0.14 E-score,–,–,0.0244 E-score,–,-0.0579 E-score,-0.0471 E-score,0.038 E-score,0.035 E-score,-0.103 E-score
TTAAGGAA,0.11 E-score,–,0.0389 E-score,–,–,–,-0.13 E-score,0.139 E-score,–,0.24 E-score,-0.0483 E-score,-0.0265 E-score,–
GTTGACTA,0.0254 E-score,–,0.079 E-score,–,–,–,0.0198 E-score,0.0271 E-score,0.0207 E-score,0.158 E-score,0.0849 E-score,0.0271 E-score,–
AAGTCAAT,-0.0132 E-score,–,-0.0466 E-score,-0.0121 E-score,–,–,-0.115 E-score,0.0431 E-score,-0.0194 E-score,0.0407 E-score,0.0343 E-score,0.0312 E-score,–
GTCAAACA,0.0319 E-score,-0.0277 E-score,0.0368 E-score,-0.00752 E-score,-0.0339 E-score,0.11 E-score,-0.0469 E-score,0.048 E-score,0.0043 E-score,-0.00865 E-score,–,0.0199 E-score,0.475 E-score
AGCGTCAA,–,-0.0331 E-score,-0.0415 E-score,-0.011 E-score,–,–,0.0978 E-score,–,0.12 E-score,0.00976 E-score,0.0921 E-score,0.149 E-score,–
TGACTTAA,0.0109 E-score,0.342 E-score,-0.0328 E-score,0.0488 E-score,0.107 E-score,–,-0.00155 E-score,0.183 E-score,-0.0247 E-score,-0.0386 E-score,–,0.095 E-score,0.427 E-score
GCGTCAAA,0.0197 E-score,-0.0227 E-score,-0.0785 E-score,-0.0567 E-score,-0.00573 E-score,–,-0.129 E-score,0.052 E-score,–,-0.0309 E-score,–,0.107 E-score,0.409 E-score
GGCGTAAC,–,-0.176 E-score,0.0194 E-score,-0.0393 E-score,0.0594 E-score,–,–,–,-0.0799 E-score,0.0143 E-score,–,0.0254 E-score,-0.0779 E-score
GTACGCAA,0.482 E-score,0.121 E-score,0.445 E-score,–,–,–,–,–,–,0.413 E-score,–,0.178 E-score,-0.113 E-score
ACGGAACA,0.224 E-score,0.0301 E-score,0.418 E-score,–,–,–,–,–,0.00676 E-score,0.352 E-score,–,0.03 E-score,0.0155 E-score
AATTACGC,–,0.0398 E-score,-0.00422 E-score,–,0.18 E-score,–,0.144 E-score,0.199 E-score,-0.0947 E-score,0.119 E-score,–,0.187 E-score,-0.178 E-score
AAGAAACC,0.246 E-score,–,–,–,–,–,-0.0181 E-score,–,0.435 E-score,0.0406 E-score,–,0.143 E-score,-0.0491 E-score
AAACCCTC,-0.0213 E-score,0.141 E-score,0.0591 E-score,–,-0.0405 E-score,-0.0104 E-score,–,0.0187 E-score,0.414 E-score,0.0462 E-score,–,0.0661 E-score,-0.117 E-score

Sequence,binding signal (GST-ANAC092(1-176)),binding signal (GST-NTL6(1-168)),binding signal (GST-ANAC019 NAC domain),binding signal (GST-ANAC055(1-171)),binding signal (GST-ATAF1 NAC domain),binding signal [1],binding signal (GST-NAP(1-166)),binding signal (GST-NST2(1-184)),binding signal (GST-NTL8 NAC domain),binding signal (GST-VND3 NAC domain),binding signal (GST-VND7 NAC domain),binding signal [2],binding signal (GST-WRKY1(266-371))
CTTGCTTC,0.288 E-score,0.295 E-score,–,-0.0421 E-score,-0.0219 E-score,–,-0.0691 E-score,–,–,-0.0922 E-score,–,0.0145 E-score,-0.0743 E-score
CTTTCCTC,–,0.104 E-score,0.0599 E-score,–,0.0155 E-score,-0.0374 E-score,-0.0664 E-score,0.026 E-score,–,0.0465 E-score,–,0.0823 E-score,0.036 E-score
ATTACGTG,0.457 E-score,–,–,–,0.372 E-score,–,0.419 E-score,–,–,0.446 E-score,–,0.138 E-score,0.127 E-score
ACTTAACC,0.197 E-score,–,–,–,0.132 E-score,0.186 E-score,-0.0376 E-score,–,0.243 E-score,0.203 E-score,–,0.223 E-score,0.0388 E-score
TTACGGAA,0.266 E-score,0.151 E-score,–,0.402 E-score,–,–,–,–,–,0.442 E-score,–,0.151 E-score,0.126 E-score
AGGAAACG,0.207 E-score,–,–,0.149 E-score,–,0.132 E-score,–,–,0.451 E-score,0.109 E-score,–,0.0106 E-score,-0.0447 E-score
ACGCAAGG,–,0.0426 E-score,–,–,0.106 E-score,–,–,–,–,0.122 E-score,0.128 E-score,0.0129 E-score,–
AAGGTAAC,0.233 E-score,0.309 E-score,–,–,–,–,0.151 E-score,–,0.441 E-score,0.154 E-score,–,-0.0309 E-score,-0.0269 E-score
CCCCGCCC,0.325 E-score,–,0.329 E-score,0.178 E-score,–,0.343 E-score,–,–,0.372 E-score,-0.0225 E-score,–,0.455 E-score,-0.0358 E-score
TATCGTAA,–,0.146 E-score,-0.0971 E-score,–,0.188 E-score,0.337 E-score,–,–,-0.142 E-score,0.143 E-score,–,0.136 E-score,-0.0776 E-score
ACGTAAGT,–,0.212 E-score,–,–,–,–,–,–,–,0.414 E-score,–,0.06 E-score,0.112 E-score
ATAGCGTA,0.437 E-score,–,-0.0295 E-score,0.136 E-score,–,–,0.128 E-score,0.355 E-score,-0.0375 E-score,0.137 E-score,–,0.216 E-score,0.00878 E-score
ACGCGACC,–,-0.0533 E-score,–,-0.125 E-score,-0.0194 E-score,–,0.0134 E-score,–,0.0199 E-score,-0.00204 E-score,0.0778 E-score,0.0846 E-score,–
GAACACGC,0.382 E-score,–,–,–,–,–,–,–,-0.0779 E-score,0.138 E-score,–,-0.0491 E-score,-0.145 E-score
CACGCAAA,0.487 E-score,–,0.421 E-score,–,–,0.486 E-score,–,–,0.0878 E-score,0.396 E-score,–,0.157 E-score,0.0331 E-score
